Assay results from paper PMC4336329 (PLoS ONE, 2015).
In all, about 310,000 compounds went through this assay and about 14,000 (4.5%) showed an effect of 50% or more. The effect is printed as a negative number. The list shows a part of the results.

Target: human ether-à-go-go-related gene (hERG) potassium channel (human, UniProt Q12809)
Assay: primary screen, population patch clamp on CHO cells stably expressing hERG
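Note: peak tail current of the secondary pulse compared with the same well before compound.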

human ether-à-go-go-related gene (hERG) potassium channel, sequence (Q12809 whole entry, looked up): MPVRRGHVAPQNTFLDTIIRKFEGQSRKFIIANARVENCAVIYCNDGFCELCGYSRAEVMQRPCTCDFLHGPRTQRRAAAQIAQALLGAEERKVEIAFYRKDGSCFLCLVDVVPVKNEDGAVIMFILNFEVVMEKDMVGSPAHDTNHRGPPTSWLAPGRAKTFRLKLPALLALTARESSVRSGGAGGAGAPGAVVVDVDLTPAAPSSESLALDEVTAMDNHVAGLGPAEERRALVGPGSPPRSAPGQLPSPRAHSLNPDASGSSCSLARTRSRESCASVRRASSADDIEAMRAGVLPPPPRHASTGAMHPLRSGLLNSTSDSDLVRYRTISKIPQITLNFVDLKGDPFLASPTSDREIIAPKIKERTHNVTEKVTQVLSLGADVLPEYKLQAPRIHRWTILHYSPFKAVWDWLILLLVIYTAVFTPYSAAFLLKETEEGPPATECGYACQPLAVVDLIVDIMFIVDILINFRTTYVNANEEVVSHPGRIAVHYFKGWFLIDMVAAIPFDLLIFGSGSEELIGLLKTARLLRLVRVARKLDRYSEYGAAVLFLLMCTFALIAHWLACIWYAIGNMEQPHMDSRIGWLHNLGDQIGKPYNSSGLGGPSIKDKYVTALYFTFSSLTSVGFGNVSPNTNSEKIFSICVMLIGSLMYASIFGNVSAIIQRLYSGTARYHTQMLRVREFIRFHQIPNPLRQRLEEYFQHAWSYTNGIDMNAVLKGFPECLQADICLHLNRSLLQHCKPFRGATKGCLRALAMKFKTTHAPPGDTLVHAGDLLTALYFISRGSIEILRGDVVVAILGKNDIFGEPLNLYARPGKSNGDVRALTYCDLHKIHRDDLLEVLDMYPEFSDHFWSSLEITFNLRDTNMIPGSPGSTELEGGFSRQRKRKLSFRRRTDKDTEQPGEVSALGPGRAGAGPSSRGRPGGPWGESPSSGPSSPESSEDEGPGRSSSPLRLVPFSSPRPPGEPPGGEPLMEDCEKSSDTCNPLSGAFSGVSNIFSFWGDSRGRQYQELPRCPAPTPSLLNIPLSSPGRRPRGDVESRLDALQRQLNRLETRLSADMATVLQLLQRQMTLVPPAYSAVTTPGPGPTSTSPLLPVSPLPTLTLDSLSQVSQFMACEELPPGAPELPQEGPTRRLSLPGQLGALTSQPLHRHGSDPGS

SMILES	hERG current change (%, negative = inhibition) at 10uM
CCOc1ccc(N(CC(=O)Nc2nccs2)S(=O)(=O)c2c(C)noc2C)cc1	-5.98%
Cc1ccc(/C=C(/NC(=O)c2ccccc2)C(=O)NC(Cc2c[nH]c3ccccc23)C(=O)O)cc1 (stereo not shown)	12.8%
O=C(Nc1ccc2ncccc2c1)c1ccccc1Br	6.61%
CCOc1ccc(/C=N/NC(=O)c2cc3c(OC)cccc3[nH]2)cc1	20.7%
CCN(CC)CC(=O)Nn1c(C)nc2c(ncn2-c2ccccc2)c1=O	4.24%
CN(C)C1=NC(N(C)C)=NP(N(C)C)(N(C)C)=N1	18.3%
Cc1cc(C)n(CC(=O)n2c3c(c4ccccc42)CCCC3)n1	14.7%
COc1ccc(NS(=O)(=O)c2cccc(NC(=O)COc3ccc(OC)cc3)c2)cc1	7.69%
Cc1cccc(NC2=C(NCCO)C(=O)c3ccccc3C2=O)c1	-25.4%
CCOC(=O)c1c(C)[nH]c(C)c1C(=O)COC(=O)c1cccc(S(=O)(=O)NC)c1	-7.56%
CCCCCCSc1nsc(NC(C)=O)n1	4.73%
CCN(CC)CCCN(Cc1cc2cc(OC)ccc2[nH]c1=O)C(=O)Nc1ccccc1	-55.3%
CCOC(=O)c1ccc(NC(=S)Nc2cccc(N)n2)cc1	8.76%
COC(=O)c1cc(C#N)c(Oc2ccccc2OC)nc1C	-9.54%
Cc1nc2c3ccccc3nc(NNC(=O)CCC(=O)N3CCC(C)CC3)n2n1	0.182%
Cc1ccc(Cl)cc1-n1c(O)c(C=NCCCN2CCOCC2)c(=O)[nH]c1=O	12.1%
CC1Cc2ccccc2N1C(=S)NC(=O)c1ccc(Cl)cc1Cl (stereo not shown)	4.89%
Cc1nc(NCCc2ccccc2)sc1C(=O)N(C)C	5.87%
Cc1[nH]nc(N)c1-c1ccc(Cl)cc1	7.49%
CCN(C(=O)c1c(C)noc1C)c1c(N)n(Cc2ccccc2)c(=O)[nH]c1=O	4.33%
CN(C)c1cc[n+](CC(=O)Nc2cccc([N+](=O)[O-])c2)cc1.[Cl-]	30.7%
CCC(C)(C)NC(=O)c1cc(S(=O)(=O)N2CCCCC2)ccc1N1CCOCC1	-13.4%

SMILES	hERG current change (%, negative = inhibition) at 10uM
COc1ccccc1C(c1nnnn1C(C)(C)C)N1CCN(Cc2ccncc2)CC1 (stereo not shown)	3.11%
O=C(CSc1nnc(-c2ccccc2)n1-c1ccccc1)N1c2ccccc2Sc2ccccc21	-4.79%
O=S(=O)(Nc1ccc(N2CCCCC2)cc1)c1ccccc1	-2.74%
CCCCC[C@H]1CN(C2CCCCC2)C(=O)[C@@H]1CC(=O)NCc1ccccc1	-67.7%
Nc1ccc(-n2nncc2-c2ccccc2)cc1	11.8%
COc1cc(C(=O)Oc2ccc3ccc(O)cc3c2)cc(OC)c1OC	12.5%
COc1ccccc1C(=O)NCCC(=O)NC(C)CCc1ccccc1 (stereo not shown)	-2.22%
O=C1CCC(C(=O)N2CCCCCCC2)CN1Cc1cccc(C(F)(F)F)c1 (stereo not shown)	-22.4%
CCC(C)[C@H](NC(=O)OC(C)(C)C)C(=O)N/N=C/C1=Cc2ccccc2OC1 (stereo partly shown)	-20%
COc1ccc(C(=O)N2CC3(C)C4CCC3(C)C2(C#N)C4)cc1OC (stereo not shown)	4.65%
C/C(CC1CC(C)OC1=O)=N\NC(N)=S (stereo not shown)	10.5%
COc1cc(NC(=O)N[C@@H](Cc2c[nH]c3ccccc23)C(=O)O)c(C(=O)O)cc1OC	19%
CCOc1ccc(NC(=O)NC23CC4CC(CC(C4)C2)C3)cc1	-9.59%
CCOC(=O)C1(Cc2ccc(Cl)cc2)CCN(C(C)Cc2ccc(O)c(OC)c2)CC1 (stereo not shown)	-70.8%
CCOc1cc(/C=N/NC(=O)CSc2nnc(C)s2)ccc1OCc1ccccc1Cl	-3.44%
Cc1cc(OCCCn2ccnc2)cc(C(C)C)c1	-14.4%
Cc1ccc(S(=O)(=O)N(C)C)cc1NC(=O)C(C)OC(=O)C1CCCC1 (stereo not shown)	-61.2%
CS(=O)(=O)N(CC(=O)NCc1ccccc1)C1CCCCC1	-7.88%
COc1ccc(N2C(=O)C(CC(=O)Nc3ccc(F)cc3)N(CCc3cccs3)C2=O)cc1 (stereo not shown)	-25.3%
COc1ccc2cc1Oc1ccc(cc1)C[C@H]1c3c(cc4c(c3Oc3cc5c(cc3OC)CCN(C)[C@@H]5C2)OCO4)CCN1C	-46.8%
Cc1cccc(N2C(=O)C3C4CC(=O)C(c5ccccc54)C3C2=O)c1C (stereo not shown)	-3.65%
Cc1onc(-c2ccccc2Cl)c1C(=O)NCc1ccc(S(N)(=O)=O)cc1	9.04%

SMILES	hERG current change (%, negative = inhibition) at 10uM
CNc1ncc(C(=O)c2ccc(Cl)cc2)s1	3.51%
Cn1c(=O)c(=O)n(C)c2cc(N3CCOCC3)c(NS(=O)(=O)c3ccc(Br)cc3)cc21	-27%
CCCCOC(=O)C1CN(c2ccccc2)N=C1C(=O)OCC (stereo not shown)	-11.7%
CCOc1ccc(N(C)C(=O)CCc2nnc3ccc(NCc4ccco4)nn23)cc1	9.15%
CCOc1ccc(Nc2nc(N)nc(CSC(=S)N3CCOCC3)n2)cc1	-2%
CC(C)(O)P(=O)(O)CCc1ccccc1	26.2%
Cc1ccccc1OCC(=O)N/N=C/c1cn(Cc2ccccc2)c2ccccc12	10.5%
CCCc1cc(=O)oc2c(C)c(O[C@@H]3O[C@H](CO)[C@@H](O)[C@H](O)[C@H]3O)ccc12	22.7%
Cc1ccc(-c2nc3ncccc3o2)cc1N	10.7%
C/C(Cc1ccccc1)=N\NC(=O)c1cc(C(C)(C)C)[nH]n1	-7.49%
O=C(Nc1ccc(OCC(=O)N2CCOCC2)cc1)c1cc(F)c(F)cc1Cl	13.7%
CSc1nc(SCC(N)=O)c2c3c(sc2n1)CN(C)CC3	-0.306%
COCC(=O)Nc1cc(=O)n(C)c(=O)n1C	4.94%
O=C1NCC2=C1C(c1ccccc1)Nc1ccccc1N2 (stereo not shown)	11.3%
O=C(CCCn1cnc([N+](=O)[O-])n1)Nc1ccc(Cl)c(Cl)c1	-29.8%
CCSc1nnc(-c2cnn(-c3ccccc3)c2-n2cccc2)n1C	-12.9%
Cc1cc(NC(=O)Cn2c(=O)c3c(ncn3CC(C)C)n(Cc3ccccc3)c2=O)no1	-4.71%
O=C(OCC(=O)N1CCC(Cc2ccccc2)CC1)c1ccccc1NCCO	-33.3%
Cc1ccc(-c2c(C(=O)N/N=C/c3sccc3C)nnn2-c2nonc2N)cc1	20.5%
Cc1ccc(-c2cc(C(=O)N/N=C/c3ccc(Cl)cc3)n[nH]2)o1	3.49%
CN1CCN(C(=O)CN(CCc2ccccc2)S(C)(=O)=O)CC1	11%
Cc1ccc(C)c(NC(=O)CSc2nc3ccc(N4C(=O)c5ccccc5C4=O)cc3s2)c1	12.7%

SMILES	hERG current change (%, negative = inhibition) at 10uM
Cc1ccc(CNC(=O)COC(=O)c2cnc(C)cn2)cc1	1.47%
CCCN1CCN(CCCNC(=O)c2ccc3c(Cl)c4c(nc3c2)CCCC4)CC1	-61.1%
NC(=O)CNC(=O)c1ccc(Cl)cc1	22.7%
CCC(C(=O)O/N=C(\N)c1cccc(C)c1)c1ccccc1 (stereo not shown)	7.28%
COc1cc(CCCN2C(=S)NC[C@@H]2CC2CCCCC2)cc(OC)c1OC	-1.89%
CC(C)(C)C(=O)Nc1nnc(CSCc2ccccc2F)s1	-6.48%
O=C(CN1c2ccccc2Sc2ccccc21)NNC(=O)Nc1cccc(Cl)c1	2.84%
COc1ccc(/C=N\NC(=O)c2cccc(F)c2)cc1COc1ccccc1	19.5%
O=C1CCC(=O)N1Cc1c(Cl)cccc1Cl	19.8%
O=C(O)C1CCN(C(=O)CSc2nc3ccccc3c(=O)n2-c2ccc(Cl)cc2)CC1	25.4%
Cn1c(CN2CCC(C(N)=O)CC2)c(C#N)c2ccccc21	-0.933%
CC(=O)c1cc(C#N)c(SCc2ccccc2C#N)nc1C	9.53%
COc1cc(OC)cc(C(=O)N[C@H](C(=O)Nc2cc(C)cc(C)c2)C(C)C)c1	-54.7%
CCOc1ccc(Cc2nnc(SCC(=O)Nc3c(C)cccc3C)[nH]c2=O)cc1	3.96%
Cn1cc(CN2CCCC(CO)(Cc3cccc(Cl)c3)C2)cn1 (stereo not shown)	-17.1%
Cc1ccc(-c2cc(C(=O)Nc3cnn(C(C)C)c3)no2)cc1	8.89%
CSC1=NCCN1S(=O)(=O)c1ccc(Cl)cc1	-9.47%
Cc1ccc(C(=O)N/N=C\c2ccc(OC(=O)c3cccc(F)c3)cc2)cn1	11%
O=C(NCCN1CCNCC1)c1ccccc1O	6.74%
Cc1cc2nc3n(c2cc1C)CC1CC(C(=O)NCc2ccccc2)N(C)C31 (stereo not shown)	-31.4%
CCOc1ccc2nc(N(CCN(C)C)C(=O)c3ccc4ccccc4c3)sc2c1.Cl	4.67%
S=C(NCc1ccco1)Nc1ccc(Br)cn1	6.67%
